# Reference: ChEMBL document CHEMBL4888484, “Replenishing the malaria drug discovery pipeline: Screening and hit evaluation of the MMV Hit Generation Library 1 (HGL1) against asexual blood stage Plasmodium falciparum ,using a nano luciferase reporter read-out” (2022)
# Hit rate of the full screen: of about 150,000 compounds, about 540 (0.36%) showed an effect of 50% or more. Some of the results follow.
# Tested on: Plasmodium falciparum
# Assay: Primary screen in NF54 nanoGlo assay, in single point, at 2uM, 72h; a lower Z score goes with more inhibition
# Format: functional, Erythrocyte
# Conditions: timepoint 72 hour
SMILES,% Inhibition [%],Z score
Cc1ccc(NC(=O)c2ccccc2-c2nc3ccccc3s2)cc1,-11,1.33
CC1CCCC(C)C1NC(=O)CCc1nc2c([nH]1)c(=O)[nH]c(=O)n2C (stereo not given),32,-3.64
CCOC1CC(O)C12CCN(C(=O)NC1Cc3ccccc3C1)CC2 (stereo not given),-6,0.59
C[C@H](NC(=O)CN1CCCN(C)CC1)c1nc(-c2ccccn2)no1,-5,0.78
C[C@H]1c2ccsc2CCN1Cc1ccc(-n2ccnc2)cc1,-8,0.75
O=C(Nc1cnc(CC2CC2)nc1)Nc1ccn(C2CCOCC2)n1,-3,0.64
COc1ccc(CN2C[C@H](C(=O)NCc3ccncc3)C3(CCOCC3)C2)cc1,-4,0.74
O=C([C@@H]1CN(S(=O)(=O)c2ccccc2Cl)CCO1)N1CCc2ccc(Cl)cc2C1,-20,2.36
CCC(C)C1NC2(CCN(S(=O)(=O)c3ccc(C)cc3)CC2)N(CCCOC)C1=O (stereo not given),-10,0.96
CCOC(=O)c1c(C)c(CCC(=O)NC(C)C)n(CC)c1C,-1,0.14
NC1=N[C@H](c2ccccc2)C=C(c2ccccc2)O1,33,-3.73
COC1([C@H](C)NC(=O)c2cc3c(C)cccc3o2)CCOCC1,-10,1.12
CC(C)c1nc(-c2ccc[nH]2)n(Cc2ccc(F)cc2)n1,-3,0.43
CCc1ncsc1C(=O)NC1CCC(S(C)(=O)=O)CC1 (stereo not given),-12,1.56
COc1cccc(S(=O)(=O)N2CCC(c3ccc(C)cc3)C2C(=O)O)c1F (stereo not given),-6,0.81
CCOc1ccccc1CN(CC)CCn1cncn1,-3,0.63
CC(=O)c1sc(-c2ccc(N3CCCC3)nc2)nc1C,-6,1.16
CCN(CC)c1nc(-c2cccc(C)c2)nnc1C,-4,0.81
CCOC1CC(N(C)C(=O)C[C@H]2CCCC(=O)N2)C1 (stereo not given in full),-3,0.34
Cc1n[nH]cc1C1CCN(c2cc(N3CCCC[C@@H]3CO)ncn2)CC1,6,-1.08
Cn1c(=O)c2c(-c3ccc(Br)cc3)n(-c3cccc4cccnc34)cc2n(C)c1=O,-4,0.72
CC(=O)Nc1ccc(C)cc1S(=O)(=O)N1CC=C(c2c(C)n(Cc3ccccc3C)c3ccccc23)CC1,92,-8.31

SMILES,% Inhibition [%],Z score
CNC(=NCCCOc1cccc(OC)c1)NC,38,-5.56
Cc1noc(C)c1CN1C(=O)[C@@H]2CC[C@H]1CN(C(=O)c1ccc(CO)o1)C2,5,-0.97
O=S(=O)(c1ccccc1)c1ccc(NCc2ccco2)cc1,-19,3.54
CCc1nnc(CNC(=O)[C@H]2OCC(=O)N(CC)[C@@H]2c2ccccc2)o1,-2,0.23
OC[C@H]1CCCCN1c1cc(NCc2ccc(Cl)cn2)ncn1,-7,1.18
COCCC1(C(=O)NS(=O)(=O)c2cccnc2)CCC1,29,-3.77
CC[C@@H](C)[C@@H]1C(=O)N[C@@H](Cc2c[nH]c3ccccc23)C(=O)N1C,-2,0.19
CCCn1nc2c(c(C(F)F)cc(=O)n2S(=O)(=O)c2cc(C)ccc2C)c1C,34,-3.8
O=C(NC1CC1)N1CCC[C@H]1C1CCC1,17,-2.16
CN(C)Cc1cccc(C(=O)N2CCC[C@H](c3nccs3)C2)c1,-6,0.93
O=C(NCc1noc([C@@H]2CCCO2)n1)c1ccc(O)cn1,-9,1.09
O=C(CCc1ccncc1)NC1CC(O)(C(F)(F)F)C1 (stereo not given),-2,0.3
O=C(Cn1cnc2ccccc2c1=O)Nc1ccncc1,-6,0.69
Cc1c(-c2ccccc2)nn(C)c1NC(=O)c1cccn1C1CC1,-6,0.76
COCCc1noc(CN2C[C@@H]3CC[C@H]2CN(C(=O)c2cccnc2)C3)n1,-4,0.75
CCc1cccc2c1NC(=O)[C@]21[C@@H]2C(=O)N(c3ccc(Cl)cc3)C(=O)[C@@H]2[C@@H]2CCCN21,1,-0.14
O=C(Nc1ccc(N2CCCC2)c2ncccc12)[C@H]1CCOC1,15,-1.88
CCn1nnc(C)c1CNC[C@]1(O)CCCC1(C)C,0,0.04
O=C(NC1CC1)N1CCN(S(=O)(=O)c2ccc(Br)cc2)CC1,4,-0.41
O=C1NC2(CCS(=O)(=O)CC2)C(=O)N1Cc1ccccc1Cl,-16,2.94
COc1cccc(CC(=O)Nc2cnns2)c1,3,-0.32
O=C(CN1C(=O)c2cc(Cl)c(Cl)cc2C1=O)N1CCOCC1,-13,1.97

SMILES,% Inhibition [%],Z score
C[C@@H](CNCC1(S(C)(=O)=O)CCOCC1)c1cccc(Cl)c1,-4,0.32
CC(C)(C)c1n[nH]c2c1[C@@H](c1ccnc3ccccc13)CC(=O)N2,-11,1.98
COCc1nc(C)cc(NC[C@H]2CCc3cccnc32)n1,-11,1.47
O=C(Nc1ccc2ccc(Cl)cc2n1)C1(N2CCOCC2)CCC1,3,-0.33
O=C(NC[C@@H]1COc2ccccc2C1)c1cccc(-n2cnnc2)n1,-2,0.27
Cc1noc(C)c1CN1CC[C@H](Nc2nc3ccccc3s2)[C@@H](O)C1,7,-1.21
CC(=O)c1ccc(-c2nc(CC(=O)NC3CCCCC3)no2)cc1,-1,0.08
Cn1cc(-c2nc(-c3cnn(CCF)c3)no2)c(C2CC2)n1,-4,0.41
O[C@@H]1CO[C@H]2[C@@H]1OC[C@@H]2n1nnnc1-c1ccc(-c2ccccc2)cc1,-6,0.75
C[C@@H]1CN(c2noc(C3CC3)n2)CC[C@@]1(O)C1CCOCC1,-14,2.45
CCN1C[C@H](CN(C)C(=O)c2cc3ccccc3[nH]2)Oc2ccccc21,3,-0.43
CCc1cc(C(=O)N2C[C@H]3CC[C@@H](C2)N(Cc2c(C)noc2C)C3=O)on1,4,-0.51
CN(CCCNS(=O)(=O)c1ccc(C(=O)O)cc1)c1ccccn1,-5,0.88
Cc1ncccc1C(=O)NC[C@@]12CCCC=C1N(CC1CC1)C(=O)CC2,-6,1.16
Cn1cc(S(=O)(=O)NCc2ccc(-c3ccoc3)o2)cn1,-8,1.16
Cc1nn(C)c(C(=O)NCc2csc3c2CCCC3)c1Cl,-5,0.62
CCC1(CC)C(NC2CCN(c3ncccn3)CC2)CC1OC (stereo not given),13,-1.17
CCNCc1ccccc1OCCOC,-21,2.25
Cc1nnc(CCC(=O)N2CCC(C)CC2)o1,-10,1.34
CCCNc1ccc(C#N)cc1NS(=O)(=O)N(C)C,-5,0.78
O=C(Cc1cc2ccccc2s1)N1CCC[C@@](O)(CO)C1,-5,0.94
Nc1nc(-c2cccc(Oc3ccccc3)c2)ns1,-3,0.55

SMILES,% Inhibition [%],Z score
O=C1N(C2CCCC2)C(O)=NC12CCCCC2,9,-1.38
Cc1cc(S(=O)(=O)N2CCC3(CC2)C[C@@H]3NC(=O)c2ccncc2)ccc1F,0,0.05
CC(=O)c1cccc(NC(=O)Cn2c(=O)n(Cc3ccccc3)c(=O)c3nscc32)c1,-9,1.13
CC(=O)NC1CCN(C[C@H]2CCc3ccccc3C2)CC1,15,-1.76
CC(C)c1nc([C@H]2CCCN(c3nccn4cncc34)C2)no1,4,-0.45
CN(C(=O)C1CC(F)(F)C1)c1ccccc1,-7,1.29
CC1(C)CC(=O)c2cn(-c3ccccc3)c(=O)c(C(=O)NC3CCCCC3)c2C1,2,-0.21
Cc1cc(-c2noc(C3C[C@H]4C[C@@H](N)[C@H]4C3)n2)nc2ccccc12 (stereo not given in full),-8,1.67
CC1CCN(C[C@H]2CCCN(C(=O)COc3ccc(F)cc3)CC2)CC1,2,-0.25
O=C(Nc1ccnc(OCC(F)(F)F)n1)N1CCn2cccc2C1,-6,0.78
Cc1c(C(=O)O)nn(-c2cccc(F)c2)c1Oc1ccc(NC(=O)CC(C)C)cc1S(=O)(=O)NC(C)(C)C,7,-1.11
CCCC[C@H](C)c1nc(-c2ncccn2)no1,-9,1.21
COc1ccc(-c2n[nH]cc2CNCCCOc2cccnc2)cc1F,4,-0.43
COc1ccc(-c2noc(Cn3cnc4ccc(Cl)cc4c3=O)n2)cc1OC,-12,1.34
FC(F)(F)c1cnc(N2CCC(c3nnc4n3CCC4)CC2)s1,-5,0.77
c1ccc(CNc2ncc(CN3CCCC[C@@H]3CN3CCCC3)cn2)cc1,-1,0.14
CN(C)c1ccccc1C(=O)N1CCC(C(=O)N2CCCC2)CC1,2,-0.3
CC(CS(C)(=O)=O)C(=O)N1C2C=C(c3ccccc3)CC1CC2 (stereo not given),-3,0.43
Cc1ccc(C)c(CN(C)CC(=O)N(C)C)c1,-10,0.93
